# Reference: the supplement of paper PMC3334620
# Over roughly 33,000 sequences, “E-score (-0.5 to 0.5)” has its median near -0.035; the highest 2% begin near 0.34. This is one part of the list.
# Biological target: T1, Mot3 (UniProt P54785)
# T1 sequence: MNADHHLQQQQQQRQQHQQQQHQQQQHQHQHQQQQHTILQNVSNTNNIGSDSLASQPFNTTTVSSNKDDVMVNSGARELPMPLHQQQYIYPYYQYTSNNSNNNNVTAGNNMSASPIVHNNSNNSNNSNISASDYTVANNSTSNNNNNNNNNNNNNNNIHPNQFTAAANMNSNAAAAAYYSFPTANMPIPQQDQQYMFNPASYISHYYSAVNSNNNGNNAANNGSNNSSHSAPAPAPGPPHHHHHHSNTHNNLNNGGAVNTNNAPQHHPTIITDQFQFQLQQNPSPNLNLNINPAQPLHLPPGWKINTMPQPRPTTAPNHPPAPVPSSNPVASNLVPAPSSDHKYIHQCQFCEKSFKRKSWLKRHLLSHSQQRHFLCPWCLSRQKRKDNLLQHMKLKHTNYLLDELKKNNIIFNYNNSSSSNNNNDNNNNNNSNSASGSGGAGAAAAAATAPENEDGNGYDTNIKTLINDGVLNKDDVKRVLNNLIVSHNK
# Assay: PBM E-score (8-mer binding enrichment) (E-score (-0.5 to 0.5)); higher = stronger / more preferred TF binding; most listed sequences are background and not binding sites
# Conditions: protein concentration: 200 nM; construct: GST-full length
# Method in brief: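 Using PURExpress in vitro transcription/translation, GST-tagged yeast transcription factors were made in full-length or DNA-binding-domain form. These were applied at about 100-200 nM to double-stranded universal all-10-mer Agilent arrays, and bound protein was detected with fluorescent anti-GST. Scans were normalised with masliner before the Universal PBM Analysis Suite assigned E-scores to ungapped eight-base words pooled with their reverse complements.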
row,Sequence,PBM E-score
1,TCTTTAAA,0.0621
2,AGGGTTTA,0.144
3,ATATCTAG,-0.0915
4,CTTCGTTA,-0.052
5,CAGGTTAG,-0.181
6,AGACTCAC,-0.27
7,CCGCTCCC,-0.342
8,ATAAGTAT,-0.0758
9,CGACACCA,-0.178
10,CGCGTAAG,0.299
11,ATTCGCCG,0.0375
12,CAATTATC,-0.0463
13,GTAGCGAA,-0.203
14,CAGCGCCA,-0.183
15,AAACATAG,0.206
16,ACTTCTAG,-0.0597
17,TGACCACA,0.0383
18,GGCCGGCA,-0.107
19,CGCACTCA,-0.129
20,CGATAGAG,-0.105
21,ATTCCAAA,0.00803
22,ACAATAGA,0.201

row,Sequence,PBM E-score
1,GCCAGTAA,-0.175
2,ACATGTTC,0.295
3,ATTGGGGG,-0.253
4,AGCCGTAG,-0.182
5,CCATTGTC,-0.182
6,AAGTGCGG,-0.0843
7,CCTATCGA,0.0654
8,CGGCCGCC,-0.271
9,AATTGTGC,-0.0647
10,GATGCCAA,-0.148
11,CCACGACG,-0.101
12,CGTGCTCA,0.111
13,TAATAGGA,0.27
14,GCGTACGA,-0.00052
15,ACTTTATG,-0.03
16,CGTCTAGA,-0.2
17,CTCCCACC,-0.37
18,CGTCAGGC,0.0152
19,GAGGCCGA,-0.231
20,CAAACGTG,0.0815
21,AACGTCGA,0.0921
22,GGCCGGAA,-0.235

row,Sequence,PBM E-score
1,CACAATAG,0.232
2,TAGCATAA,-0.0194
3,CTCGCTTC,-0.316
4,ACGGTAGC,0.00401
5,GGCGCAGA,-0.12
6,CTACAACC,0.0524
7,ACATATGG,0.0959
8,ATCCCCCA,-0.376
9,AATTACGT,0.335
10,ATGTGATA,0.107
11,ACGAGCGC,-0.135
12,AATTTGGC,0.0722
13,ACTGGAAG,-0.0411
14,GCCTAAGC,0.0733
15,GAACGCCC,-0.186
16,GACCGTAA,-0.265
17,AGACGGAC,-0.211
18,AAGACGGG,-0.286
19,AAATCTTG,0.0451
20,TAGGACTA,-0.0289
21,CAGCTCTC,-0.0994
22,GCATTACC,0.0719

row,Sequence,PBM E-score
1,CAGCAGTA,-0.0168
2,AACCTGGT,-0.0323
3,ACCAGGAA,0.187
4,ACACCCCT,0.0768
5,ACTAGCCT,-0.129
6,CTTTGTCC,-0.113
7,CAGCTCAC,-0.112
8,CAATCTGA,-0.145
9,CCCGCCCA,-0.13
10,ACCCCGCC,-0.141
11,ACCAACAG,-0.133
12,CTCCATGC,-0.0612
13,AAATGCTT,-0.0919
14,AATCCGCC,-0.225
15,CCGATCGG,-0.104
16,GTTCGGAA,-0.14
17,GGCTAGGA,-0.0993
18,ACGGATGA,-0.0966
19,TCAGCACA,0.118
20,ATCCAGAT,-0.209
